{
  "source": "PubChem BioAssay AID463254",
  "about": "(National Center for Advancing Translational Sciences (NCATS), 2010)",
  "note": "Among all 330,000 compounds or so, about 40 (0.01%) were called active. The shares of active, inactive and inconclusive entries below differ from those in the screen. Calls come from the whole dose curve; as a rule, active = well fitted inhibition curve with a large enough effect; inconclusive = small, poorly fitted or top-dose-only effect, or effect the other way; inactive = flat fitted curve, though single readings scatter. Potencies of inconclusive entries are doubtful fits and often do not repeat. Potency is the fitted concentration of half-maximal effect; tags give direction and shape of the fitted curve or compound fluorescence and quenching.",
  "data": [
    {"target": "Ubiquitin carboxyl-terminal hydrolase 2 (Homo sapiens) (UniProt O75604)", "sequence (O75604 whole entry, looked up)": "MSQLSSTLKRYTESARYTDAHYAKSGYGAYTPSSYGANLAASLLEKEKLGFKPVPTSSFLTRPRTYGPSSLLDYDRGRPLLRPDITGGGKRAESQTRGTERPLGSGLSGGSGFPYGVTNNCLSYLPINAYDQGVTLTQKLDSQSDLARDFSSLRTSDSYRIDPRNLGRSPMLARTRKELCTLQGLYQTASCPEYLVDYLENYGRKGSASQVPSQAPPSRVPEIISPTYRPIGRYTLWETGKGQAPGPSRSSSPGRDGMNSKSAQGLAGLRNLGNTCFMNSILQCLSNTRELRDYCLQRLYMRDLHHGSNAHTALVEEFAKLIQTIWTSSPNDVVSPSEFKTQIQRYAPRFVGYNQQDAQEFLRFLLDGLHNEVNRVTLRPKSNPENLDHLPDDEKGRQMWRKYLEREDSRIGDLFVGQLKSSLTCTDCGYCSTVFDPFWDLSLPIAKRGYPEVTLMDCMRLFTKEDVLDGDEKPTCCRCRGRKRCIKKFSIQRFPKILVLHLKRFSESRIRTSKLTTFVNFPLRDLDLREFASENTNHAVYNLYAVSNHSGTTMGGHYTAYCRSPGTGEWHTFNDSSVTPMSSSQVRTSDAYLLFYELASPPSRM", "assay": "qHTS Assay for Inhibitors of Ubiquitin-specific Protease USP2a Using CHOP2 as the Reporter;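 for activity change, negative = inhibition: plate controls were DMSO wells for no effect and full inhibition by NEM control for full effect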", "conditions": "USP2 core, Ub-CHOP2 coupled fluorogenic reporter, 485/531; activity change, negative = inhibition: at 38.3 µM (top of the series)", "summary_of_the_method": "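Deubiquitinase activity read as fluorescence (485/531 nm) after Ub-CHOP2 cleavage activates the enterokinase reporter on its substrate; USP2 core 10nM, Ub-CHOP2 and substrate 25nM each, 30min compound preincubation then 60min RT; data normalized to NEM, curves fitted.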", "values": [
      {"compound": "Cc1cc(C(=O)OCC(=O)c2cccc([N+](=O)[O-])c2)c2cccc(C)c2n1", "Potency": "active: 11.2 µM"},
      {"compound": "CN(C)c1cccc(C(=O)NNC(=O)C23CC4CC(CC(C4)C2)C3)c1", "Potency": "inconclusive: 25.1 µM [falling, single point]"},
      {"compound": "O=C(Cc1ccccc1)N/N=C/c1cc(Br)cc(Br)c1O", "Potency": "inactive"},
      {"compound": "Cc1ccc(C)c(NC(=S)NCCc2c[nH]c3ccccc23)c1", "Potency": "inactive"},
      {"compound": "Cc1ccc(N2C(=O)c3cccc4c(N)ccc(c34)C2=O)c2cccnc12", "Potency": "inconclusive: 8.91 µM [fluorescent, partial curve]"},
      {"compound": "CN(C)C(=O)CSc1nc2ccccc2n1Cc1ccccc1", "Potency": "inactive"},
      {"compound": "C[C@H](CO)N1C[C@H](C)[C@@H](CN(C)S(=O)(=O)c2ccc(Cl)cc2)Oc2ccc(NS(=O)(=O)c3ccccc3)cc2CC1=O", "Potency": "inconclusive: 10 µM [falling, single point]"},
      {"compound": "COc1ccc(CNC(=O)c2ccccc2C(=O)O)cc1", "Potency": "inactive"},
      {"compound": "O=C(Nc1ncccn1)c1ccc([N+](=O)[O-])o1", "Potency": "inconclusive: 11.2 µM [fluorescent, partial curve]"},
      {"compound": "CC(C)C(=O)N=c1sc2cc(F)cc(F)c2n1C", "Potency": "inconclusive: 28.2 µM [falling, single point]"},
      {"compound": "O=C1NC[C@@H](c2ccccc2)OC(=O)[C@@H](Cc2ccc(F)cc2)CC/C=C/C[C@@H]1CC(=O)N(CCO)Cc1ccccc1", "Potency": "inconclusive: 28.2 µM [falling, single point]"},
      {"compound": "COc1cc2c(C#CCO)c(-c3ccc(C#N)cc3)oc(=O)c2cc1OC", "Potency": "inactive"},
      {"compound": "c1coc(C2Nc3cccc4cccc(c34)N2)c1", "Potency": "inconclusive: 28.2 µM [falling, single point]"},
      {"compound": "N#CC(C#N)=C1C=C2C=C(N3CCOCC3)CCC2CC1", "note": "(stereo not given)", "Potency": "inconclusive: 3.55 µM [fluorescent, partial curve]"},
      {"compound": "CNc1cccccc1=S", "Potency": "inconclusive: 22.4 µM [falling, single point]"},
      {"compound": "COc1ccccc1/C=C/C=C1\\Oc2c(ccc(O)c2CN(C)C)C1=O", "Potency": "inconclusive: 10 µM [fluorescent, partial curve]"},
      {"compound": "C#CCOCCOCCOCCNc1nc(N2CCN(C(=O)CCCCCCCCCCNC(=O)[C@H]([C@@H](C)CC)n3cc(CCCCN=C(N)N)nn3)CC2)nc(N2CCN(C(=O)CCCCCCCCCCNC(=O)[C@H](CO)n3cc(CCCSC)nn3)CC2)n1", "Potency": "active: 6.31 µM"},
      {"compound": "CCOC(=O)C1CCN(C(=O)Cn2nc(C)n3nc(-c4ccc(OC)cc4)cc3c2=O)CC1", "Potency": "inactive"},
      {"compound": "CCCC[C@]12Cc3ccccc3C(O1)c1c(c3ccccc3oc1=O)O2", "activity change, negative = inhibition": "inactive: 1.83% [at 7.66 µM]"},
      {"compound": "CC(C)(C)OC(=O)N1CCC(NC(=O)c2[nH]cnc2C(=O)Nc2cccc(Cl)c2)CC1", "Potency": "inactive"},
      {"compound": "CC(C)C(=O)N1CCN(c2ccccc2NC(=O)c2ccco2)CC1", "Potency": "inactive"},
      {"compound": "Clc1ccc(CNCCCSc2ncccn2)cc1Cl", "Potency": "inactive"},
      {"compound": "CCn1nc(-c2ccccc2)c2nc3ccccc3nc21", "Potency": "inconclusive: 22.4 µM [fluorescent, single point]"},
      {"compound": "C=CCn1cc(/C=C/c2cc[n+](C)cc2)c2ccccc21", "Potency": "inconclusive: 10 µM [fluorescent, partial curve]"},
      {"compound": "Fc1ccc(-c2nnn(Cc3nc4ccccc4s3)n2)cc1", "Potency": "inconclusive: 0.562 µM [falling, full curve]"},
      {"compound": "Cc1cc(C(F)(F)F)c(C#N)c(SCC(=O)Nc2nc3ccccc3s2)n1", "Potency": "inconclusive: 14.1 µM [fluorescent, single point]"},
      {"compound": "CCCCCCCC/C=C\\CCCCCCCC(=O)NCCc1ccc(O)c(O)c1", "Potency": "inconclusive: 20 µM [falling, single point]"},
      {"compound": "O=c1cc(CO)oc(CN2CCN(Cc3ccccc3)CC2)c1O", "Potency": "inconclusive: 28.2 µM [falling, single point]"},
      {"compound": "COc1cc(-c2nc(-c3ccc4c(c3)-c3ccccc3S4(=O)=O)c(-c3ccccc3)[nH]2)cc(OC)c1O", "Potency": "inconclusive: 3.55 µM [falling, single point]"},
      {"compound": "CN1CCN(CCCNC(=O)Nc2cccc3ccccc23)CC1", "Potency": "inactive"},
      {"compound": "COC(=O)c1c(N2C(=O)CCC2=O)sc2c1CCCC2", "Potency": "inconclusive: 5.01 µM [falling, single point]"},
      {"compound": "CC1(C)Cc2c(C#N)c(N3CCN(C(=O)c4ccco4)CC3)nc(-c3ccco3)c2CS1", "Potency": "inconclusive: 28.2 µM [falling, single point]"},
      {"compound": "CNc1ccc(/C=C(\\CCC(=O)O)c2nc3ccccc3s2)cc1[N+](=O)[O-]", "Potency": "inactive"},
      {"compound": "N#C/C(=C\\c1ccc(N2CCOCC2)o1)C(=O)Nc1ccc(O)cc1", "Potency": "inconclusive: 12.6 µM [fluorescent, single point]"},
      {"compound": "S=C(Nc1ccc(N2CCOCC2)cc1)Nc1ccc2nc(-c3ccco3)c(-c3ccco3)nc2c1", "Potency": "inconclusive: 11.2 µM [fluorescent, partial curve]"},
      {"compound": "Cc1cc2nc3c(=O)[nH]c(=O)[nH]c3nc2c([N+](=O)[O-])c1N", "Potency": "inconclusive: 12.6 µM [fluorescent, partial curve]"},
      {"compound": "COc1ccc(NC(=O)C2CC(=O)OC2c2ccccc2)cc1", "note": "(stereo not given)", "Potency": "inconclusive: 12.6 µM [falling, single point]"},
      {"compound": "O=[N+]([O-])c1ccc(SCCc2ccccn2)cc1", "Potency": "inactive"},
      {"compound": "CN1CCN(Cc2c(O)ccc3c(=O)c(Oc4ccccc4Cl)c(C(F)(F)F)oc23)CC1", "Potency": "inconclusive: 14.1 µM [falling, single point]"},
      {"compound": "N#C/C(=C\\Nc1ccc2cn[nH]c2c1)c1nc(-c2ccc(Cl)cc2)cs1", "Potency": "inactive"},
      {"compound": "COc1ccccc1N=Nc1ccc(N)c(C)c1", "Potency": "inactive"},
      {"compound": "CC(=O)N1c2c(cc(Br)cc2S(=O)(=O)NCc2cccnc2)CC1C", "note": "(stereo not given)", "Potency": "inconclusive: 5.01 µM [falling, single point]"},
      {"compound": "CCN(CC)c1ccc2cc(-c3nc4ccccc4[nH]3)c(=O)oc2c1", "Potency": "inconclusive: 0.891 µM [fluorescent, full curve]"},
      {"compound": "O=C(NN1C(=O)/C(=C/C=C/c2ccco2)SC1=S)c1ccncc1", "Potency": "inconclusive: 28.2 µM [falling, single point]"},
      {"compound": "Cc1ccc(-c2[nH]c(-c3ccccc3)nc2SCC(=O)NCC2CCCO2)cc1", "note": "(stereo not given)", "Potency": "inactive"}
    ]}
  ]
}
